# Data taken from a collection of fitness landscapes (doi:10.1126/science.1257360).
# The list shows a part of the results.
# B1: PhoQ; a variant is named by its letters at X, in order, P23837 (parent)
# chain: MKKLLRLFFPLSLRVRFLLATAAVVLVLSLAYGMVALIGYSVSFDKTTFRLLRGESNLFYTLAKWENNKLHVELPENIDKQSPTMTLIYDENGQLLWAQRDVPWLMKMIQPDWLKSNGFHEIEADVNDTSLLLSGDHSIQQQLQEVREDDDDAEMTHSVAVNVYPATSRMPKLTIVVVDTIPVELKSSYMVWSWFIYVLSANLLLVIPLLWVAAWWSLRPIEALAKEVRELEEHNRELLNPATTRELTSLVRNLNRLLKSERERYDKYRTTLTDLTHSLKTPLXXLQXXLRSLRSEKMSVSDAEPVMLEQISRISQQIGYYLHRASMRGGTLLSRELHPVAPLLDNLTSALNKVYQRKGVNISLDISPEISFVGEQNDFVEVMGNVLDNACKYCLEFVEISARQTDEHLYIVVEDDGPGIPLSKREVIFDRGQRVDTLRPGQGVGLAVAREITEQYEGKIVAGESMLGGARMEVIFGRQHSAPKDE
# Variants of: B1
# Assay: enrichment ratio after two sorts for PhoP signalling (ratio (wild type AVST 3.29)); higher = more functional
# Conditions: with PhoP (E. coli)
row,Variant,enrichment ratio
1,WLAF,≤ 0.25
2,EEFM,≤ 0.25
3,GCIK,≤ 0.25
4,GQFL,≤ 0.25
5,YMPH,≤ 0.25
6,EEPV,≤ 0.25
7,SYKT,≤ 0.25
8,AYPA,≤ 0.25
9,FQFE,≤ 0.25
10,GLTC,≤ 0.25
11,IASP,≤ 0.25
12,TMPK,≤ 0.25
13,WSAY,≤ 0.25
14,VQID,≤ 0.25
15,TWAV,≤ 0.25
16,AFND,≤ 0.25
17,CLYC,≤ 0.25
18,WKVG,≤ 0.25
19,LAVH,≤ 0.25
20,MSCF,1.71
21,DECV,25.8
22,IVHL,≤ 0.25
23,LLGG,≤ 0.25
24,LMNA,≤ 0.25

row,Variant,enrichment ratio
1,PSKH,≤ 0.25
2,HAWW,≤ 0.25
3,TYSN,2.37
4,VSMH,1.13
5,YDWE,≤ 0.25
6,ENGL,≤ 0.25
7,KECS,≤ 0.25
8,GGDV,≤ 0.25
9,FKYH,≤ 0.25
10,TQCG,14.9
11,INCA,≤ 0.25
12,FKGG,≤ 0.25
13,QSQP,≤ 0.25
14,KTWF,≤ 0.25
15,IDQG,≤ 0.25
16,SMDG,≤ 0.25
17,GDMH,≤ 0.25
18,RYVP,≤ 0.25
19,VVMP,0.436
20,EKCQ,≤ 0.25
21,EAAH,≤ 0.25
22,ATNV,≤ 0.25
23,FKEV,≤ 0.25
24,GYRK,≤ 0.25

row,Variant,enrichment ratio
1,FICV,1.13
2,AKRD,≤ 0.25
3,SYVF,0.277
4,EDHW,≤ 0.25
5,DGFK,≤ 0.25
6,TMRN,≤ 0.25
7,DPTF,≤ 0.25
8,ILTA,≤ 0.25
9,MDLH,≤ 0.25
10,PSYF,≤ 0.25
11,DHLM,0.798
12,EGPM,≤ 0.25
13,PPNI,≤ 0.25
14,WNGK,≤ 0.25
15,VYMN,≤ 0.25
16,SSDK,≤ 0.25
17,DYAC,≤ 0.25
18,WNQF,≤ 0.25
19,GYCA,≤ 0.25
20,SWRV,≤ 0.25
21,FRLK,≤ 0.25
22,DLQQ,≤ 0.25
23,RKII,≤ 0.25
24,INAI,0.944

row,Variant,enrichment ratio
1,PQES,≤ 0.25
2,SMFR,≤ 0.25
3,MHPM,≤ 0.25
4,NQSD,≤ 0.25
5,ANSM,16.6
6,HRFS,≤ 0.25
7,QEFH,≤ 0.25
8,FFLV,≤ 0.25
9,LYLQ,≤ 0.25
10,NQLW,≤ 0.25
11,HFPQ,≤ 0.25
12,RFSF,≤ 0.25
13,SAPG,≤ 0.25
14,RFGR,≤ 0.25
15,ELTS,≤ 0.25
16,MNHT,≤ 0.25
17,MRMH,≤ 0.25
18,ISLQ,8.48
19,PSAK,≤ 0.25
20,TSGK,≤ 0.25
21,IFLC,≤ 0.25
22,QYPG,≤ 0.25
23,GINL,≤ 0.25
24,FLVM,≤ 0.25

row,Variant,enrichment ratio
1,YWYN,≤ 0.25
2,RTIW,≤ 0.25
3,PIKQ,≤ 0.25
4,VCVN,≤ 0.25
5,ALMD,≤ 0.25
6,WDKI,≤ 0.25
7,KPYC,≤ 0.25
8,SWNV,≤ 0.25
9,VEKW,≤ 0.25
10,YHMH,≤ 0.25
11,SWSG,≤ 0.25
12,NDCM,≤ 0.25
13,QDGN,≤ 0.25
14,FGLN,7.1
15,YHNL,≤ 0.25
16,NNFF,≤ 0.25
17,TLAT,5.47
18,QDIQ,≤ 0.25
19,LEMY,≤ 0.25
20,YYRW,≤ 0.25
21,VFYE,≤ 0.25
22,KHEP,≤ 0.25
23,WMDW,≤ 0.25
24,LHQH,≤ 0.25

row,Variant,enrichment ratio
1,SWYP,≤ 0.25
2,HPKW,≤ 0.25
3,PHHL,≤ 0.25
4,VSCT,≤ 0.25
5,DCVK,≤ 0.25
6,RIGS,≤ 0.25
7,SPVN,≤ 0.25
8,KTPE,≤ 0.25
9,QITS,≤ 0.25
10,WSEW,≤ 0.25
11,MVSK,0.645
12,RHQC,≤ 0.25
13,WQHM,≤ 0.25
14,TNIL,≤ 0.25
15,NIEF,≤ 0.25
16,RWQP,≤ 0.25
17,VHHT,≤ 0.25
18,HDFK,≤ 0.25
19,IWNQ,≤ 0.25
20,NDFM,≤ 0.25
21,FFMW,≤ 0.25
22,GKFW,≤ 0.25
23,MLIC,≤ 0.25
24,ADDG,≤ 0.25

row,Variant,enrichment ratio
1,KVYA,≤ 0.25
2,QGAA,≤ 0.25
3,TMSP,≤ 0.25
4,TNNE,≤ 0.25
5,DNTI,≤ 0.25
6,TQPF,≤ 0.25
7,DHMN,≤ 0.25
8,RDLR,≤ 0.25
9,HLNC,≤ 0.25
10,EFYC,≤ 0.25
11,FMRW,≤ 0.25
12,GSSF,0.449
13,ELRT,≤ 0.25
14,GRMG,≤ 0.25
15,RVIK,≤ 0.25
16,TMLN,≤ 0.25
17,QKHY,≤ 0.25
18,QVCT,3.53
19,PFFW,≤ 0.25
20,AWHV,≤ 0.25
21,LLTQ,≤ 0.25
22,DYVW,≤ 0.25
23,SLEK,≤ 0.25
24,KCFC,≤ 0.25

row,Variant,enrichment ratio
1,QNWP,≤ 0.25
2,LHVC,≤ 0.25
3,PTTD,≤ 0.25
4,VAWP,≤ 0.25
5,HNKG,≤ 0.25
6,AMYF,1.6
7,PNTY,0.61
8,QPFG,≤ 0.25
9,YPKP,≤ 0.25
10,MTAV,7.37
11,FHVT,≤ 0.25
12,TNLY,≤ 0.25
13,EYTK,≤ 0.25
14,AAIL,2.69
15,FTPI,≤ 0.25
16,WHKF,≤ 0.25
17,NHYE,≤ 0.25
18,SDFF,≤ 0.25
19,YQYD,≤ 0.25
20,DEYM,≤ 0.25
21,NYRQ,≤ 0.25
22,LTND,≤ 0.25
23,KSLW,≤ 0.25
24,FMEI,≤ 0.25

row,Variant,enrichment ratio
1,PIPD,≤ 0.25
2,NDCA,≤ 0.25
3,ASRQ,≤ 0.25
4,REFS,≤ 0.25
5,DQPP,≤ 0.25
6,WLPD,≤ 0.25
7,DSTS,≤ 0.25
8,RMIR,≤ 0.25
9,DNES,≤ 0.25
10,SYNN,≤ 0.25
11,YHGR,≤ 0.25
12,LFVY,≤ 0.25
13,QRTF,≤ 0.25
14,QAGS,5.59
15,WVYN,≤ 0.25
16,KVMT,≤ 0.25
17,LEYL,0.302
18,GYSW,≤ 0.25
19,PVWV,≤ 0.25
20,KPVF,≤ 0.25
21,FPKL,≤ 0.25
22,VYGG,≤ 0.25
23,REYP,≤ 0.25
24,KMGF,≤ 0.25

row,Variant,enrichment ratio
1,IGDR,≤ 0.25
2,RRWE,≤ 0.25
3,HMLT,≤ 0.25
4,RPGG,≤ 0.25
5,YRDY,≤ 0.25
6,HHPK,≤ 0.25
7,AFIE,≤ 0.25
8,WKGW,≤ 0.25
9,PWTE,≤ 0.25
10,DFRK,≤ 0.25
11,VCSR,≤ 0.25
12,MIAT,12.1
13,QFAC,≤ 0.25
14,ESQF,≤ 0.25
15,WPIF,≤ 0.25
16,HFFT,≤ 0.25
17,DTYD,≤ 0.25
18,QKVC,≤ 0.25
19,VYGS,≤ 0.25
20,MRGR,≤ 0.25
21,HMYF,0.849
22,MCAK,21.4
23,HFII,≤ 0.25
24,GHMQ,≤ 0.25

row,Variant,enrichment ratio
1,VTDR,≤ 0.25
2,GLFD,≤ 0.25
3,NCLI,0.397
4,WDAV,≤ 0.25
5,IRGG,≤ 0.25
6,PTAP,≤ 0.25
7,PEVA,≤ 0.25
8,WMAR,≤ 0.25
9,DETD,≤ 0.25
10,VIMI,≤ 0.25
11,MAVY,≤ 0.25
12,VEAP,≤ 0.25
13,HYMA,≤ 0.25
14,TTGE,≤ 0.25
15,WAYA,≤ 0.25
16,YFCK,≤ 0.25
17,FGAW,≤ 0.25
18,TMEN,≤ 0.25
19,HLRQ,≤ 0.25
20,WMHQ,≤ 0.25
21,THIN,≤ 0.25
22,GEYE,≤ 0.25
23,RNED,≤ 0.25
24,GTSN,≤ 0.25

row,Variant,enrichment ratio
1,QLII,≤ 0.25
2,TNQD,≤ 0.25
3,RFIW,≤ 0.25
4,NDQR,≤ 0.25
5,NWCV,≤ 0.25
6,PRMP,≤ 0.25
7,AYHV,≤ 0.25
8,YQCE,≤ 0.25
9,VFGA,≤ 0.25
10,APDR,≤ 0.25
11,TELS,12.5
12,KDIV,≤ 0.25
13,VWGC,≤ 0.25
14,DAFD,≤ 0.25
15,IAFN,≤ 0.25
16,DSHS,≤ 0.25
17,VESY,≤ 0.25
18,NRAQ,≤ 0.25
19,MIYD,9.39
20,WMNL,≤ 0.25
21,YRFT,≤ 0.25
22,FEKC,≤ 0.25
23,NDPC,≤ 0.25
24,SSAS,9.58

row,Variant,enrichment ratio
1,PSGE,0.442
2,GFQA,≤ 0.25
3,SMTS,7.7
4,SMGK,≤ 0.25
5,YAGQ,≤ 0.25
6,MEPD,≤ 0.25
7,RCPM,≤ 0.25
8,YSLR,≤ 0.25
9,GFMM,≤ 0.25
10,ESST,≤ 0.25
11,FICP,≤ 0.25
12,PYYK,≤ 0.25
13,PPES,≤ 0.25
14,VFEA,≤ 0.25
15,MLNA,≤ 0.25
16,DTAF,≤ 0.25
17,KADL,≤ 0.25
18,GICQ,10.3
